PubChem BioAssay AID1346428 (National Center for Advancing Translational Sciences (NCATS), 2018)
Several values for one entry are separate records, joined by “and”; a condition that tells them apart may be missing. Identical values can stand only once. About 1,200 (2.5%) of roughly 48,000 compounds were called active. Inconclusive results (about 2%) are left out.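 The calls were made as follows: active = activation of at least 60% and not above a set upper limit (about 1 call in 100 departs from these limits); inconclusive = activation of 40% to 60%, or above that upper limit; inactive = activation under 40%.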 Some of the results follow.

molecular target: Probable G-protein coupled receptor 32 (Homo sapiens) (UniProt O75388); test: qHTS for Agonists of Human Resolvin D1 Receptor DRV1; settings: CHO-K1 GPR32 beta-arrestin PathHunter luminescence, 90 min; at 76.9 µM; active compounds read high; zero percent set by DMSO-only wells; also: 0% is about no effect
UniProt O75388, sequence (O75388 whole entry, looked up): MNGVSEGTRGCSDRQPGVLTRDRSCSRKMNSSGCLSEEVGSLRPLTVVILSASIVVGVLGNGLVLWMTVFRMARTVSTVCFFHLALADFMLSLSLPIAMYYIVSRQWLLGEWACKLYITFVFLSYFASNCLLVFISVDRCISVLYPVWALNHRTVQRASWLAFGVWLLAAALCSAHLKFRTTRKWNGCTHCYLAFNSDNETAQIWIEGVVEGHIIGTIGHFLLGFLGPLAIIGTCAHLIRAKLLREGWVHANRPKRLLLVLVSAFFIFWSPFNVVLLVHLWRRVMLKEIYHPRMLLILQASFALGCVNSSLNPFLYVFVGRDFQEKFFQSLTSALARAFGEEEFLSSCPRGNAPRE
Summary of the method: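 Engineered CHO-K1 line co-expressing GPR32-ProLink and EA-beta-arrestin. Compound treatment lasted 90 min at 37 °C. Luminescence was recorded after 1 h with substrate at ambient temperature, relative to DMSO basal wells.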

activation, inactive:
CC1CCC(NC(=O)c2ccc3c(c2)N(Cc2ccccc2F)C(=O)c2ccccc2S3(=O)=O)CC1 (configuration not stated) -0.869%
COc1ccc(N2CCN(C(=O)c3cnc(N4CCOCC4)c4ccccc34)CC2)cc1 -1.44%
Cc1ccc(-c2nnc3c4ccccc4c(-c4ccccc4)nn23)cc1 -8.63%
CC(C)NC(=O)CSc1cn(CC(=O)N2CCCCCC2)c2ccccc12 -22.7%
CCOc1ccccc1NCc1nnc2n1CCCCC2 31.4%
Cc1ccc(NCc2cc3cc4c(cc3n(CC(=O)Nc3ccc(C)cc3)c2=O)OCCO4)cc1 -33.9%
Nc1c(C(=O)NCc2cccs2)nnn1CC(=O)Nc1cccc(F)c1 -6.23%
COC(=O)c1scc(-c2ccc(C)cc2)c1S(=O)(=O)N1CCN(c2ccc(F)cc2)CC1 -2.75%
O=C(NC1CCCCC1)c1ccc(CSc2nc3cccnc3n2Cc2cccc(F)c2)cc1 -10.9%
Cc1cc(C)cc(-n2ccn(CC(=O)c3ccc(F)cc3)c(=O)c2=O)c1 -8.29%
Cc1cc(C)c(S(=O)(=O)NCCc2sc3nc(-c4ccc(F)cc4)nn3c2C)c(C)c1 -24.5%
CCC1CCCCN1C(=O)c1c[nH]c2ccc(S(=O)(=O)Nc3cccc(OC)c3)cc2c1=O (configuration not stated) -2.1%
O=C(NCc1ccco1)c1ccc2c(c1)N(Cc1ccccc1)C(=O)c1ccccc1S2 -27.9%
COC(=O)c1ccc(CSc2c(C(C)C)cnc3c2c(=O)n(C)c(=O)n3C)cc1 -18.9%
CCOc1ccc(NC(=O)CCc2c(C)nc3cc(-c4ccccc4OC)nn3c2C)cc1 28.5%
Cc1ccc(NC(=O)c2sc3ncnc(N(C)C4CCCCC4)c3c2C)c(C)c1 -0.343%
O=C(c1ccc(CS(=O)(=O)c2ccc(Br)cc2)o1)N1CCN(c2ccc(F)cc2)CC1 30%
Cc1c(NC(=O)Nc2ccc(Cl)c(Cl)c2)sc2nc3n(c(=O)c12)CCC(C)CC3 (configuration not stated) 14%
Cc1ccc(N(C)S(=O)(=O)c2ccc3[nH]c(=O)ccc3c2)cc1 6.41%
O=C(O)c1ccc(NS(=O)(=O)c2ccc(Cl)c(C(=O)Nc3ccccc3)c2)cc1 -11%
COc1ccc(NC(=O)c2cnn(-c3ccc(C)c(C)c3)c2C2CCNCC2)cc1OC -4.66%
O=C(Nc1nc2n(n1)C(c1ccc(F)cc1)C=C(c1ccc(Cl)cc1)N2)c1ccc([N+](=O)[O-])cc1 (configuration not stated) -9.8%
N#C/C(=C\c1ccc(OCc2ccc(Cl)cc2Cl)cc1)c1nc2ccccc2[nH]1 -8.57%
Cc1oc2c(cc(NS(=O)(=O)c3ccc(C(C)C)cc3)c3ccccc32)c1C(=O)OCc1ccccc1 -3.46%
Cc1cccc(C2=Nc3ccccc3N=C(c3cc(Cl)ccc3O)C2)c1 -1.13%
CCCNC(=O)Cn1nc(-c2ccc(OC)cc2)c2cnc3ccc(F)cc3c21 0.635%
COc1ccc(OC)c(CNC(=O)c2cc3c(Cl)nc4ccccc4c3s2)c1 6.19%
Cc1cccc(NC(=O)/C(C#N)=C/c2ccco2)c1 38.4%
O=C(Nc1cccc(Br)c1)N1CCN2CCCCC2C1 (configuration not stated) -14.4%
CCOc1ccc(-n2c(C)nc3cc(C(=O)NC4CCCC4)ccc32)cc1 -3.08%
CCOc1ccccc1NC(=O)c1c2c(nc3ccccc13)C(=O)N(C1CCCCC1)C2 -12.4%
COc1ccc(-c2nc3n(n2)C(c2ccccc2OC)C(C(=O)Nc2cccnc2)=C(C)N3)cc1 (configuration not stated) -14.6%
O=C(Nc1cccc(Cl)c1)N1CC2CCCN2c2ccccc21 (configuration not stated) -9.89%
O=C(C1CCC(CNS(=O)(=O)c2ccc(Br)s2)CC1)N1CCN(c2ccc(F)cc2)CC1 (configuration not stated) 16.9%
CCc1ccccc1NC(=O)CC1NCCNC1=O (configuration not stated) -6.5%
CCOc1ccc(C(=O)Nc2ccc3oc(-c4ccc(C)cc4C)nc3c2)cc1Br 1.86%
CCOc1ccc(NC(=O)Cn2c(=O)n(CCCCC(=O)NCCc3ccc(Cl)cc3)c(=O)c3ccccc32)cc1 -6.16%
CCC1CN(C(=O)N2CCC(C(=O)N3CCN(c4ccccc4)CC3)CC2)c2ccccc2O1 (configuration not stated) -10.1%
COc1ccc(CNC(=O)c2ccc3c(c2)nc2n3CCCCC2)cc1 -8.76%
Cc1ccc(NS(=O)(=O)c2ccc3c(c2)N(C)C(=O)CC(=O)N3C)cc1Cl 20.1%
Cc1ccc(-n2c(=O)c3ccc(C(=O)NCc4ccco4)cc3n(CC(=O)Nc3ccc(C)c(F)c3)c2=O)cc1 -28.7%
O=S(=O)(NCC(c1cccs1)S(=O)(=O)c1ccccc1)c1ccccc1 (configuration not stated) -9.4%
Nc1nnc(-c2cccc(Cl)c2Cl)c(N)n1 8.99% and -1.54%
CCOC(=O)N1CCc2c(sc(NCc3ccc(N(CC)CC)cc3)c2C(=O)Nc2cc(OC)ccc2OC)C1 -5.39%
CCOc1ccc(-n2c(SCC(=O)NCc3ccccc3)nc3n[nH]c(C)c3c2=N)cc1 0.942%
Cc1cc(C)n(C(C)CC(=O)Nc2ccc(Cl)cc2C)n1 (configuration not stated) -8.95%
CC1Cc2cc(S(=O)(=O)CCC(=O)Nc3ccccc3F)ccc2N1C(=O)C1CC1 (configuration not stated) 5.15%
COc1cccc(CN2C(=O)C3(SCC(=O)N3c3ccc(C)c(Cl)c3)c3ccccc32)c1 (configuration not stated) 17.9%
CC[C@@]1(O)C(=O)OCc2c1cc1n(c2=O)Cc2cc3c(CN(C)C)c(O)ccc3nc2-1 24.9%
CCOC(=O)c1cc(-c2ccc(C)cc2)n(CCCC(=O)Nc2cc(C)ccc2C)c1 -3.77%
CCOc1ccccc1NS(=O)(=O)c1cc2[nH]c(=O)c(=O)[nH]c2cc1C -6.76%
COc1ccc(Cn2ccc3nc(C)c(C(=O)Nc4cc(OC)c(OC)c(OC)c4)cc3c2=O)cc1 0.345%
